From US20170299608A1 (NGM BIOPHARMACEUTICALS, published 2017) come the findings set out here.

Broadly, the IC50 is the concentration needed to halve the response being measured. Lower therefore signals greater potency in that assay.

Experiment [1] has as its target T1, mature human GDF15 (112 amino acids) (human, UniProt Q99988 197-308).
T1 sequence: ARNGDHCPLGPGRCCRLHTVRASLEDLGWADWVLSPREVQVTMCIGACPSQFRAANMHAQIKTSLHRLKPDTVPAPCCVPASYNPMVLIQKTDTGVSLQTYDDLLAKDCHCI
Briefly: cell-based or functional assay.

For experiment [2], the target named is T2, ^125I-GDF15 (radio-iodinated mature human GDF15) (human, UniProt Q99988 197-308, 125I label, site not stated).
T2 construct: Labelled form of m1; also called radio-labeled GDF15
T2 sequence: T1 sequence
Briefly: radio-ligand competition: soluble GFRAL-Fc inhibiting binding of 0.15 nM ^125I-GDF15 to HEK293-GFRAL cells. As for the experimental part: HEK293-GFRAL cells were suspended in ice-cold binding buffer (Dulbecco's modified Eagle's medium containing 2 mg/ml BSA, and 25 mM HEPES, pH 7.4) and transferred to pre-wetted Multiscreen filter plates (96-well Dura PVDF 0.65 um Opaque; Millipore), which were kept on ice. Typically, 1×10⁵ of cells in 25 μl were used per well. […] Plates were then transferred to a vacuum filtration manifold (Pall Corporation) and supernatants were filtered. Each well was washed four times with 100 μl of ice cold binding buffer. Bound ¹²⁵I-GDF15 (CPM) were measured by scintillation counting (150 μl/well of EcoLite, MP Biomedicals, Santa Anna, Calif.) using MicroBeta2 Plate Counter (Perkin Elmer). The concentrations (in nM) of unlabeled inhibitors used in this experiment are as follows. GDF15 and GFRAL-Fc: 100, 25, 6.25, 1.56, 0.39, 0.098, 0.024, 0.006; 1M03: 1000, 250, 62.5, 15.63, 3.91, 0.98, 0.24, 0.06.

B1: GFRAL-Fc (extracellular domain of hGFRAL fused to Fc) (Fc fusion)
chain: QTNNCTYLREQCLRDANGCKHAWRVMEDACNDSDPGDPCKMRNSSYCNLSIQYLVESNFQFKECLCTDDFYCTVNKLLGKKCINKSDNVKEDKFKWNLTTRSHHGFKGMWSCLEVAEACVGDVVCNAQLASYLKACSANGNPCDLKQCQAAIRFFYQNIPFNIAQMLAFCDCAQSDIPCQQSKEALHSKTCAVNMVPPPTCLSVIRSCQNDELCRRHYRTFQSKCWQRVTRKCHEDENCISTLSKQDLTCSGSDDCKAAYIDILGTVLQVQCTCRTITQSEESLCKIFQHMLHRKSCFNYPTLSNVKGMALYTRKHANKITLTGFHSPFNGEGGGGS[… human IgG1 Fc …]
notes: also called GFRAL-Fc protein; Recombinant GFRAL-Fc
As to B1, the “IC50 for inhibition of GDF15 (1 nM)-mediated reporter activation in HEK293T cells expressing GFRAL and RET” value in experiment [1] is 9.5 nM. In experiment [2], this molecule displayed an IC50 of 0.56 nM.
